# Reference: the BET-seq Pho4 binding data (Le et al. 2018)
# Some of the results follow. These are noisy estimates, calculated here from bound and input reads.
# Target: T1, Pho4 (S. cerevisiae) (UniProt P07270)
# T1 sequence: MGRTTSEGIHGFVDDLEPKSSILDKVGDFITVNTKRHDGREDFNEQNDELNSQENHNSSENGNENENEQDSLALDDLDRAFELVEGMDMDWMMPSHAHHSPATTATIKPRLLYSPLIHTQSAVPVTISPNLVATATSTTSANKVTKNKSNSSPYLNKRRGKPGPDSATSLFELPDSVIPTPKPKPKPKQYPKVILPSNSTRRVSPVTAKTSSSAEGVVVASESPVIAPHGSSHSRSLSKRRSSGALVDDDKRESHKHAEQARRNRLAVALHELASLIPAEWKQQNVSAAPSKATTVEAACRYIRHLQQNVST
# Test: relative binding free energy (BET-seq); higher = weaker binding
# Conditions: reference: library average
row,Sequence,relative binding free energy [kcal/mol]
1,TGGCGCACGTGCGTTG,-0.28
2,TATGTCACGTGTTGCT,0.05
3,ATGAGCACGTGTATTT,-0.24
4,CTTGACACGTGGGATT,0.03
5,TGGTGCACGTGTCGAA,-0.1
6,ATAGGCACGTGTAGGT,-0.12
7,CATTTCACGTGAATTG,0.35
8,GGTGGCACGTGCGTAG,-0.03
9,GCGGGCACGTGGTGAC,-0.11
10,TTGCACACGTGTTAGG,0.03
11,AGGAACACGTGAGGTG,0.24
12,TTTATCACGTGAGTAT,0.4
13,GTGGGCACGTGCTCTG,-0.24
14,AGTTACACGTGGGGGA,-0.08
15,GAGTGCACGTGGGCGA,-0.21
16,TAGGACACGTGCTGTG,-0.01
17,AGATACACGTGTATTT,-0.06
18,TTTTTCACGTGAAGCG,0.33
19,TATAGCACGTGGCGAG,-0.18
20,CGTATCACGTGAAATG,0.43
21,TCTATCACGTGGTTTA,0.21
22,TTCTGCACGTGTGATT,0.02
23,TATGACACGTGTTATG,0.19
24,ATTTTCACGTGAGGTT,0.36
25,GGTATCACGTGGAATG,0.3

row,Sequence,relative binding free energy [kcal/mol]
1,CTGGGCACGTGTGGAC,0.06
2,AATTACACGTGTGTAG,0.06
3,AATGACACGTGGTGCG,-0.09
4,TGGGCCACGTGGTCTG,-0.2
5,CGTGGCACGTGTTTCT,0.02
6,AGTATCACGTGATTGT,0.31
7,ATTGTCACGTGTGGGT,0.15
8,TTAGGCACGTGATGTT,-0.03
9,GTGTCCACGTGAAGTG,0.28
10,GTTGGCACGTGCTGGC,-0.16
11,AGGGGCACGTGTACAT,-0.18
12,ATATGCACGTGTGTGG,-0.02
13,AGGGTCACGTGCAGTT,0.05
14,CGGGGCACGTGAGGTC,0.16
15,AGGTTCACGTGGGTTT,0.29
16,AATTGCACGTGTTTTA,0.03
17,GTGGACACGTGAGTCG,0.07
18,CGATGCACGTGGGTGC,-0.11
19,GTAGGCACGTGATGCG,-0.03
20,TTTGTCACGTGCTTGC,0.04
21,ATATTCACGTGGAGTG,0.26
22,TCTTGCACGTGTAAGT,0.03
23,TTGCGCACGTGGGAGA,-0.23
24,TGAGTCACGTGCAAGT,0.17
25,GATCGCACGTGTGTTG,0.14

row,Sequence,relative binding free energy [kcal/mol]
1,GTCACCACGTGTTGGG,0.07
2,ATGGTCACGTGTGGGG,0.2
3,TGGTTCACGTGAGCTT,0.48
4,GCATGCACGTGTGGGA,0
5,TTTTTCACGTGCATAG,0.17
6,TATATCACGTGCGAGG,0.14
7,GGTATCACGTGGTAGC,0.15
8,TAGGGCACGTGTAGCG,0.1
9,ATCTGCACGTGGTGTG,-0.15
10,TTCATCACGTGTGGCT,0.1
11,GTAGACACGTGGCCGT,0.06
12,AATTTCACGTGGGTGA,0.11
13,AGGCACACGTGAGGGA,0.39
14,GGTGTCACGTGTGGCT,0.17
15,ATGTGCACGTGCTGTC,0.04
16,GAATACACGTGTTGGA,0.26
17,GGTGTCACGTGACGTT,0.19
18,TCATACACGTGTTGTT,-0.02
19,TTGTCCACGTGTTAAG,0.05
20,GGTTCCACGTGCAGGG,0.12
21,AGTAACACGTGGTTAT,-0.12
22,TATGTCACGTGGAGAG,0.01
23,AGTGACACGTGTAAGA,0.19
